Test results: the supplement of paper PMC4967469
IC50 is the fitted dose that halves viability relative to control wells, and lower means more sensitive; where the fit passes the top or lowest dose, that dose stands as a limit. AUC is the area under the same curve over the 256-fold range up to the top dose, as a fraction; the more sensitive the line, the further below 1. For part of these data: The top dose, if marked as inferred, comes from the curve model; the source does not state it.

What was measured:
Test in all cases: Viability of human cancer cell lines after 72 h of drug (GDSC screen)
[1] = compound: CN(C)C/C=C/C(=O)Nc1ccc(C(=O)Nc2cccc(Nc3nccc(-c4cccnc4)n3)c2)cc1 [ZG-10]; conditions: top dose 10 µM; top dose inferred
Procedure: (§1)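 Human cancer cell lines in 384-well plates, medium with 10% serum, drug for 72 h over a 256-fold dose range (nine 2-fold or five 4-fold steps up to the top dose). Adherent lines were fixed and stained with the nucleic acid dye Syto60, suspension lines read with resazurin; signal relative to control wells, capped at 0 and 100%. One two-parameter sigmoid per drug and line, fitted in a mixed model over all curves with the slope shared within a line.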

[2] = compound: CO[C@H]1C[C@@H]2CC[C@@H](C)[C@@](O)(O2)C(=O)C(=O)N2CCCC[C@H]2C(=O)O[C@H]([C@H](C)C[C@@H]2CC[C@@H](O)[C@H](OC)C2)CC(=O)[C@H](C)/C=C(\C)[C@@H](O)[C@@H](OC)C(=O)[C@H](C)C[C@H](C)/C=C/C=C/C=C/1C [Rapamycin]; conditions: top dose 0.1 µM; top dose inferred
Procedure: as §1

[3] = compound: CCC(=O)N1CCN(c2ccc(-n3c(=O)ccc4cnc5ccc(-c6cnc7ccccc7c6)cc5c43)cc2C(F)(F)F)CC1 [JW-7-52-1]; conditions: top dose 1.2 µM; top dose inferred
Procedure: as §1

[4] = compound: Oc1ccc2ccccc2c1SSc1c(O)ccc2ccccc12 [IPA-3]; conditions: top dose 32 µM; top dose inferred
Procedure: as §1

[5] = compound: Cn1nnc2c(C(N)=O)ncn2c1=O [Temozolomide]; conditions: top dose 30 µM
Procedure: as §1

[6] = compound: CN1CCc2c(c3ccccc3n2Cc2ccc(C(=O)NO)cc2)C1 [Tubastatin A]; conditions: top dose 20 µM
Procedure: as §1

[7] = compound: O=C(NOCC1CC1)c1ccc(F)c(F)c1Nc1ccc(I)cc1Cl [CI-1040]; conditions: top dose 10 µM; top dose inferred
Procedure: as §1

[8] = compound: CCCC[C@@H](C=O)NC(=O)[C@H](CC(C)C)NC(=O)[C@H](CC(C)C)NC(=O)OCc1ccccc1 [Z-LLNle-CHO]; conditions: top dose 2.56 µM; top dose inferred
Procedure: as §1

[9] = compound: COc1cc2c(Oc3ccc(NC(=O)C4(C(=O)Nc5ccc(F)cc5)CC4)cc3F)ccnc2cc1OCCCN1CCOCC1 [XL-880]; conditions: top dose 5.12 µM; top dose inferred
Procedure: as §1

Cell Line | AUC [1] | IC50 [1] [nM] | AUC [2] | IC50 [2] [nM] | AUC [3] | IC50 [3] [nM] | AUC [4] | IC50 [4] [nM] | AUC [5] | IC50 [5] [nM] | AUC [6] | IC50 [6] [nM] | AUC [7] | IC50 [7] [nM] | AUC [8] | IC50 [8] [nM] | AUC [9] | IC50 [9] [nM]
OCI-AML3 (acute myeloid leukaemia, suspension) | 0.636 | 1400 | 0.991 | > 100 | 0.841 | 668 | 0.717 | 7410 | 0.99 | > 30000 | 0.793 | 7690 | 0.618 | 1260 | 0.81 | 1110 | 0.871 | 3680
LAN-6 (neuroblastoma, adherent) | 0.902 | > 10000 | 0.96 | > 100 | 0.86 | > 1200 | 0.82 | 23000 | 0.983 | > 30000 | 0.985 | > 20000 | 0.737 | 3420 | 0.824 | 1910 | 0.866 | > 5120
A253 (head and neck, adherent) | 0.837 | 6450 | 0.988 | > 100 | 0.821 | 670 | 0.801 | 15100 | 0.951 | > 30000 | 0.987 | > 20000 | 0.934 | > 10000 | 0.757 | 860 | 0.845 | 3540
NCI-SNU-16 (stomach, suspension) | 0.587 | 1050 | 0.956 | > 100 | 0.72 | 287 | 0.99 | > 32000 | 0.986 | > 30000 | 0.991 | > 20000 | 0.955 | > 10000 | 0.774 | 890 | 0.878 | 4160
COR-L95 (small cell lung carcinoma, adherent) | 0.804 | 5940 | 0.97 | > 100 | 0.804 | 713 | 0.971 | > 32000 | 0.985 | > 30000 | 0.977 | > 20000 | 0.981 | > 10000 | 0.974 | > 2560 | 0.762 | 2110
LS-123 (large intestine, adherent) | 0.741 | 3930 | 0.816 | 80.2 | 0.498 | 73.8 | 0.753 | 14000 | 0.974 | > 30000 | 0.981 | > 20000 | 0.899 | > 10000 | 0.753 | 1120 | 0.836 | > 5120
EKVX (lung adenocarcinoma, adherent) | 0.712 | 5080 | 0.728 | 60.8 | 0.669 | 383 | 0.9 | > 32000 | 0.949 | > 30000 | 0.967 | > 20000 | 0.816 | > 10000 | 0.944 | > 2560 | 0.85 | > 5120
NB1 (neuroblastoma, semi-adherent) | 0.561 | 933 | 0.782 | 46.4 | 0.666 | 229 | 0.865 | > 32000 | 0.982 | > 30000 | 0.955 | > 20000 | 0.906 | > 10000 | 0.819 | 1650 | 0.663 | 958
ALL-PO (lymphoblastic leukaemia, suspension) | 0.577 | 1030 | 0.911 | > 100 | 0.452 | 54.9 | 0.771 | 13000 | 0.974 | > 30000 | 0.65 | 3350 | 0.51 | 666 | 0.759 | 939 | 0.119 | < 20
TE-12 (oesophagus, suspension) | 0.689 | 2390 | 0.761 | 42.9 | 0.387 | 34.2 | 0.983 | > 32000 | 0.98 | > 30000 | 0.98 | > 20000 | 0.756 | 4100 | 0.861 | > 2560 | 0.692 | 1250
MC-CAR (haematopoietic neoplasm, suspension) | 0.63 | 1370 | 0.981 | > 100 | 0.769 | 406 | 0.667 | 5510 | 0.976 | > 30000 | 0.861 | 14000 | 0.904 | > 10000 | 0.748 | 750 | 0.489 | 300
NCI-H1975 (lung adenocarcinoma, adherent) | 0.848 | 9160 | 0.79 | 51.9 | 0.301 | 18.9 | 0.88 | > 32000 | 0.981 | > 30000 | 0.853 | 19300 | 0.836 | 8020 | 0.713 | 709 | 0.787 | 2600
GI-ME-N (neuroblastoma, adherent) | 0.503 | 637 | 0.936 | > 100 | 0.609 | 166 | 0.977 | > 32000 | 0.867 | > 30000 | 0.626 | 3170 | 0.793 | 6550 | 0.86 | > 2560 | 0.464 | 247
KP-N-YN (neuroblastoma, adherent) | 0.573 | 1010 | 0.953 | > 100 | 0.959 | > 1200 | 0.957 | > 32000 | 0.985 | > 30000 | 0.958 | > 20000 | 0.94 | > 10000 | 0.982 | > 2560 | 0.721 | 1460
